This is one part of the list. Sequences were assembled here from the parent chain. Inactive controls read about 0.05.
B1: TEV protease; numbered along this chain (parent)
chain: MGESLFKGPRDYNPISSSICHLTNESDGHTTSLYGIGFGPFIITNKHLFRRNNGTLVVQSLHGVFKVKDTTTLQQHLVDGRDMIIIRMPKDFPPFPQKLKFREPQREERICLVTTNFQTKSMSSMVSDTSCTFPSGDGIFWKHWIQTKDGQCGSPLVSTRDGFIVGIHSASNFTNTNNYFTSVPKNFMELLTNQEAQQWVSGWRLNADSVLWGGHKVFMVKPEEPFQPVKEATQL

Variants of: B1
Test: raw area under fraction-flipped curve 0-4 h after induction (AUC4h, not background-subtracted), DNA-recorder readout of cleavage of the substrate (dimensionless); higher = more cleavage of the substrate by the protease variant
Settings: temperature: 34 °C; time window: 0-4 h after rhamnose induction
Procedure: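 In vivo DNA recorder in E. coli TOP10(DE3) ΔrhaA at 34 °C. Each TEVp single-site mutant (parent TEVp 0) is paired with a single-site variant of the 7-mer TEVs (canonical ENLYFQ|S). The substrate sits between flexible linkers in a Bxb1-sfGFP-TEVs-SsrA fusion, so cleavage stabilises Bxb1 and speeds flipping of a recombination array, read by NGS. The value is the raw area under the fraction-flipped curve over 0-4 h after rhamnose induction (AUC4h), with ≥20 reads per time point. It is not background-subtracted; inactive controls average about 0.047.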
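Also: Bxb1 expression induced with 0.2% (w/v) L-rhamnose at OD600 near 0.5, cultures sampled hourly, flipped fraction per protease–substrate barcode pair counted by paired-end Illumina sequencing.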

Variant | area with substrate ENLAFQS | area with substrate ENLCFQS | area with substrate ENLDFQS | area with substrate ENLEFQS | area with substrate ENLFFQS | area with substrate ENLGFQS | area with substrate ENLHFQS | area with substrate ENLIFQS | area with substrate ENLKFQS | area with substrate ENLLFQS | area with substrate ENLMFQS | area with substrate ENLNFQS | area with substrate ENLPFQS | area with substrate ENLQFQS | area with substrate ENLRFQS | area with substrate ENLSFQS | area with substrate ENLTFQS | area with substrate ENLWFQS | area with substrate ENLVFQS
MGESLFKGPRDYNPISSSICHLTNESDGHTTVLYGIGFGPFIITNKHLFRRNNGTLVVQSLHGVFKVKDTTTLQQHLVDGRDMIIIRMPKDFPPFPQKLKFREPQREERICLVTTNFQTKSMSSMVSDTSCTFPSGDGIFWKHWIQTKDGQCGSPLVSTRDGFIVGIHSASNFTNTNNYFTSVPKNFMELLTNQEAQQWVSGWRLNADSVLWGGHKVFMVKPEEPFQPVKEATQL [S32V] | 0.0781 | 0.0735 | 0.0594 | 0.0675 | 0.0796 | 0.0605 | 0.0648 | 0.0946 | 0.0695 | 0.0771 | 0.0695 | 0.0615 | 0.0544 | 0.0665 | 0.0765 | 0.0656 | 0.0494 | 0.0632 | –
MGESLFKGPRDYNPISSSICHLTNESDGHTTTLYGIGFGPFIITNKHLFRRNNGTLVVQSLHGVFKVKDTTTLQQHLVDGRDMIIIRMPKDFPPFPQKLKFREPQREERICLVTTNFQTKSMSSMVSDTSCTFPSGDGIFWKHWIQTKDGQCGSPLVSTRDGFIVGIHSASNFTNTNNYFTSVPKNFMELLTNQEAQQWVSGWRLNADSVLWGGHKVFMVKPEEPFQPVKEATQL [S32T] | 0.0657 | – | 0.0594 | 0.0535 | 0.0779 | 0.0666 | 0.0667 | 0.0879 | 0.0784 | – | 0.0834 | – | 0.0783 | 0.0757 | 0.0659 | 0.0777 | – | 0.0705 | 0.0855
MGESLFKGPRDYNPISSSICHLTNESDGHTTSLYGIQFGPFIITNKHLFRRNNGTLVVQSLHGVFKVKDTTTLQQHLVDGRDMIIIRMPKDFPPFPQKLKFREPQREERICLVTTNFQTKSMSSMVSDTSCTFPSGDGIFWKHWIQTKDGQCGSPLVSTRDGFIVGIHSASNFTNTNNYFTSVPKNFMELLTNQEAQQWVSGWRLNADSVLWGGHKVFMVKPEEPFQPVKEATQL [G37Q] | 0.0468 | – | 0.055 | – | 0.0649 | 0.0608 | 0.0789 | – | 0.0593 | – | – | 0.0795 | – | 0.0572 | 0.0473 | – | – | 0.0585 | 0.0525
MGESLFKGPRDYNPISSSICHLTNESDGHTTSLYGIGFGPFSITNKHLFRRNNGTLVVQSLHGVFKVKDTTTLQQHLVDGRDMIIIRMPKDFPPFPQKLKFREPQREERICLVTTNFQTKSMSSMVSDTSCTFPSGDGIFWKHWIQTKDGQCGSPLVSTRDGFIVGIHSASNFTNTNNYFTSVPKNFMELLTNQEAQQWVSGWRLNADSVLWGGHKVFMVKPEEPFQPVKEATQL [I42S] | 0.0428 | – | 0.0464 | 0.0523 | 0.057 | 0.0491 | 0.056 | 0.0507 | 0.0518 | 0.0331 | 0.054 | 0.0516 | 0.0442 | 0.048 | – | 0.047 | – | 0.0453 | 0.0556
MGESLFKGPRDYNPISSSICHLTNESDGHTTSLYGIGFGWFIITNKHLFRRNNGTLVVQSLHGVFKVKDTTTLQQHLVDGRDMIIIRMPKDFPPFPQKLKFREPQREERICLVTTNFQTKSMSSMVSDTSCTFPSGDGIFWKHWIQTKDGQCGSPLVSTRDGFIVGIHSASNFTNTNNYFTSVPKNFMELLTNQEAQQWVSGWRLNADSVLWGGHKVFMVKPEEPFQPVKEATQL [P40W] | 0.0604 | – | 0.0431 | 0.0526 | 0.0991 | – | 0.0673 | – | 0.0623 | 0.0595 | 0.0734 | 0.0573 | – | 0.074 | 0.0719 | 0.0671 | – | 0.0664 | 0.0971

— the supplement of paper PMC12217912
